Data reported in the supplement of paper PMC3334620.
Whole data set: some 33,000 sequences, median “E-score (-0.5 to 0.5)” near -0.043, cut for the highest 2% near 0.37. Some of the results follow.

What follows are sequences tested against T1, Upc2 (UniProt Q12151) (assay: PBM E-score (8-mer binding enrichment) (E-score (-0.5 to 0.5)); higher = stronger / more preferred TF binding; most listed sequences are background and not binding sites). Settings: protein concentration: 200 nM; construct: GST-full length.
T1 sequence: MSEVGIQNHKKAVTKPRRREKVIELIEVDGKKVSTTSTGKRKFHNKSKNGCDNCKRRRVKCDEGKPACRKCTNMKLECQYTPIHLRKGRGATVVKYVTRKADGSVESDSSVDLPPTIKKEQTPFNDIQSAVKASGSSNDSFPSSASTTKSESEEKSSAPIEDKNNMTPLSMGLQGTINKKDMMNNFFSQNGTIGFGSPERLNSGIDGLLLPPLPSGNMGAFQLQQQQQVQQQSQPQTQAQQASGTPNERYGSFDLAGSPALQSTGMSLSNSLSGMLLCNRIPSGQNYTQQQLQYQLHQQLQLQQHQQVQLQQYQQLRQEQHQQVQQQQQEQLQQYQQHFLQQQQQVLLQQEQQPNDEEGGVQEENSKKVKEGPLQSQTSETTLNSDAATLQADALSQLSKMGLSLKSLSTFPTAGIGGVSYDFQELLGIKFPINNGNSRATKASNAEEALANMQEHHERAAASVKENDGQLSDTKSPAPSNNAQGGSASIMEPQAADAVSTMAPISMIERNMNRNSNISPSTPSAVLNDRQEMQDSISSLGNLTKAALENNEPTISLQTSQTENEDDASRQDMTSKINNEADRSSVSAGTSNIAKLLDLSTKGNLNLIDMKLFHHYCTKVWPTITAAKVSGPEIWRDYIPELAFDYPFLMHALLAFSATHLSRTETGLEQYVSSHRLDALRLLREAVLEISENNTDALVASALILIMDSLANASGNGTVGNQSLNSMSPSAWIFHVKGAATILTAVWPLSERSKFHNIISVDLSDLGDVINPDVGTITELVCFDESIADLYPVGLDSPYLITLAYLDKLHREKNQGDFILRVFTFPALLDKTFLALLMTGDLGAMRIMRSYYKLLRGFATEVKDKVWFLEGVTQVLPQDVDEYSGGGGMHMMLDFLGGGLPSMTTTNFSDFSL
How it was run: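 For each ungapped eight-base word taken together with its reverse complement, the Universal PBM Analysis Suite assigned an E-score. Binding data came from GST-tagged yeast transcription factors, applied at about 100-200 nM, on universal all-10-mer Agilent arrays made double-stranded by primer extension. Fluorescent anti-GST marked bound protein, and scans were normalised with masliner.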

Sequence	PBM E-score
CTCAACAC	-0.0233
CGGCTTGC	-0.0517
AACACAGC	0.133
ATCTATAC	0.287
CCACTCCC	0.0437
ACCGTTGA	0.114
CTGACCCC	-0.194
ACACTTAT	0.0498
ACCGTACT	0.214
AATCCTCT	-0.28
CACTTCAG	-0.242
AATACGAT	0.395
CCGATGCA	0.00648
CCGGATCA	-0.159
GTTGGCGA	0.0336
CAGTCTCG	0.0508
CTCTACTA	-0.0789
ATACAGGG	0.0495
ATACGCGA	0.349
CCAGCTAG	-0.0471
AGAAGAAG	-0.0336
CTCAGGCA	-0.178
CCTGTGCC	-0.2
GATAGCGA	0.00835
ATACCGCA	0.0605

Sequence	PBM E-score
CTGGTCCA	-0.227
GCTGACAA	-0.233
AAAATCCC	-0.114
CTTGCAAC	-0.0347
ATACAGAG	0.0394
GCCGCAAC	-0.0602
AGTACGTG	0.0272
GGTGCCCA	-0.242
ATCAACGC	0.0345
CGCGGTCA	-0.248
ACTTACAG	0.00814
GAACCTAC	-0.0878
ACATCGGG	-0.236
ACTTAGTA	0.053
AAGCCTGA	-0.209
GTACTAGA	0.0925
AGGGTATC	-0.0702
AACACGTC	-0.112
AACAACCT	-0.0984
CCGCCACA	-0.21
CTTTTTCC	-0.0942
AGATATAT	-0.0698
CGCCAACC	-0.0871
GGTAGAAA	-0.117
GCATCTCC	-0.306

Sequence	PBM E-score
ACACTCTC	-0.0609
AGCGAAAC	0.26
GAGTTTCA	-0.0194
CCACGCGC	-0.19
GCGTGTAC	0.267
CCGTTGTA	0.0962
GATTTCGC	0.248
AGTGACCC	-0.161
ATTGATCA	-0.156
AATATCGC	-0.071
CGCGATTA	-0.0112
CCCAAACA	-0.0267
GCAGCTAC	0.0136
AAGATTTA	0.0578
CGCCTAAA	0.151
AGGTCAGC	0.136
CCCATGCG	-0.0719
TATATCAA	-0.04
CACGCAGC	-0.111
ATAGATCG	0.153
AATACTTG	-0.194
AGTACGTC	0.0167
CAAGTTAG	-0.217
CTCTAAAA	-0.165
GCCGTCGA	-0.133

Sequence	PBM E-score
TCACCCAA	-0.0588
CAACCACC	-0.183
GGCTCCCA	-0.335
ATTGCCGC	-0.13
ATGGAGGG	-0.334
AAGATGGG	-0.219
CGTTCTAA	0.222
AAAATATC	0.012
AGAATAAC	-0.0145
CGGTACAA	0.222
AGTCCATG	-0.287
ACCTGAAC	0.0902
GCTGATCC	-0.166
CGGTAGAG	-0.109
CGGCCCGC	-0.146
AGGCTGGC	-0.278
AGAAGCCT	-0.148
GAGGTCGA	-0.0241
GTGGATAA	-0.151
AAACAACG	0.0699
AGGCCTTG	-0.0981
AGCACTTG	-0.0478
GACTGGTA	0.0928
AAACGCAG	0.313
AAGTTCAG	-0.0711

Sequence	PBM E-score
CGCTGACC	-0.0504
AGTTAAGA	-0.118
ACCTTCCC	-0.0937
CTAGCACC	-0.108
GGGGTTAC	0.103
CTTGGACC	-0.169
CGGGAATA	0.0198
AGCAGAAC	0.0883
GACCATAC	0.158
GGCGACCC	-0.221
CGTATTGC	0.225
ACGTTGGC	-0.139
AGTACTCA	-0.0817
GTACCGGA	0.209
GGGGGTTA	-0.272
CCGGGATA	0.0685
CGCCGTCC	-0.0187
CTATGTGC	-0.213
CGGGCGAC	-0.245
AGTCGTGA	-0.0656
CCGGTCTC	-0.193
AGCATGCG	0.0391
ACTAGAGA	-0.253
CAAGTGTA	-0.132
GCGCGCAA	0.0889

Sequence	PBM E-score
CTACTATA	0.0927
ACAAGGAA	0.0437
ACAATCCC	-0.059
AAGTTGGT	-0.00045
ATAGCCCA	-0.0686
CCCCGCGA	-0.0946
CCCTGACA	-0.327
CGGAGGTC	-0.046
TACAACGA	0.16
CAATTTGA	0.0656
GAGGACAA	-0.0723
AGCGTGGC	-0.184
CTGTCGGC	0.118
CCAGCTGC	-0.289
GATTTGAC	0.199
AATCTATG	0.202
ATAAGCTC	0.0634
ACACGCTG	-0.0781
CGAAACCC	0.0101
CATAGTTA	-0.079
ACTTCGCT	0.184
GAGGGGCC	-0.186
CTCCGCCA	-0.308
CGATCCCG	0.0208
TATGGTGA	0.00983

Sequence	PBM E-score
GGGACCAA	-0.0906
GCTCAGCC	-0.221
CAAACTAA	0.136
AAGGATTC	-0.29
CCTTACAA	-0.227
AGTAGTAG	-0.0255
AATATACT	-0.0413
ACTTGCCC	-0.292
AAATTACG	0.235
ACGAACTG	0.31
AGGGATGC	-0.282
ACTATGAC	-0.142
ATTTGTCG	0.102
CCTATCCA	-0.278
CCGGAGCC	-0.082
ATACGATA	0.472
GCCTGGCC	-0.108
ACCTTGAA	-0.1
GACTATGC	0.0224
AAGCCTTG	0.018
ACGTAAGT	0.137
ATGGATGA	-0.0106
